Patent US12383631 (BRIGHT PEAK THERAPEUTICS, dated 2025)

T1: IL-18 receptor (IL-18Rα/IL-18Rβ) on cells (HEK-Blue IL18R reporter cells, NK-92, KG-1) (human, UniProt Q13478 19-541; O95256 20-599)
T1 sequence (looked up) 1: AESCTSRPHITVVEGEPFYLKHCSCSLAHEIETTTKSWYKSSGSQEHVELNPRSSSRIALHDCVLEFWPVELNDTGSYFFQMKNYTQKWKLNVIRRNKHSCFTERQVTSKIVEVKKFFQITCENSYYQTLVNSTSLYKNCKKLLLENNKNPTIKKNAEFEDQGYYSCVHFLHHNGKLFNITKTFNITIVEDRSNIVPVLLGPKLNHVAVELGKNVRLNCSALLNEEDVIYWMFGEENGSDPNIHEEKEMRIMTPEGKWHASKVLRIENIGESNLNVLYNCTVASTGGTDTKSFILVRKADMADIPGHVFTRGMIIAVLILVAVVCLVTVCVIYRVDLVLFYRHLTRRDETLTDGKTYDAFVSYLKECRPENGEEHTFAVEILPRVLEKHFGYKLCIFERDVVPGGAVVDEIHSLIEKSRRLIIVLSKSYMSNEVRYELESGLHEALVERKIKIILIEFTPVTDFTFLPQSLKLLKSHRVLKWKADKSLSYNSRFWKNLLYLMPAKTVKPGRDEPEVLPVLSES
T1 sequence (looked up) 2: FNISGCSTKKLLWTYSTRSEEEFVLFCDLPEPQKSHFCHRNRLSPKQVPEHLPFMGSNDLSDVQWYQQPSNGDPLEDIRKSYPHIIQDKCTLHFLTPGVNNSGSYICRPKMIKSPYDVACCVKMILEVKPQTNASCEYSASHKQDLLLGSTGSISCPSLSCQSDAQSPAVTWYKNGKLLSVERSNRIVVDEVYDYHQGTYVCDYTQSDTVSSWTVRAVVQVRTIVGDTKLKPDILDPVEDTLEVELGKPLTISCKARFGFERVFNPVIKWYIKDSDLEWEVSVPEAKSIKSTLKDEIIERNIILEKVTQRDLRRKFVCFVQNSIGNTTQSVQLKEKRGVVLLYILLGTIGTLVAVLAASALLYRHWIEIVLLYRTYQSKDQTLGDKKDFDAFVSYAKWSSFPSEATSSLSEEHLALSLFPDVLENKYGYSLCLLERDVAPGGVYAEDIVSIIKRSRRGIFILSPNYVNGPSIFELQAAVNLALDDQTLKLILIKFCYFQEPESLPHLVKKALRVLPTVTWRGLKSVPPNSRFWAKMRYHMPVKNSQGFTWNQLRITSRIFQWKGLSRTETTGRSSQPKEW

T2: human IL-18BP-His (human, UniProt O95998 31-194, limits assumed)
T2 construct: also called His-tagged human IL-18BP; not shown: His tag
T2 sequence (looked up): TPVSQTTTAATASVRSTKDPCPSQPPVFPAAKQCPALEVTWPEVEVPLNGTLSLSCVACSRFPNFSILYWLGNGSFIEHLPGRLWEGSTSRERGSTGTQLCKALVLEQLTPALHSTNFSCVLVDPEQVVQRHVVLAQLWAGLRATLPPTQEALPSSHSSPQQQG

B1: IL-18 polypeptide of SEQ ID NO: 36 (K53A) (ligand)
chain: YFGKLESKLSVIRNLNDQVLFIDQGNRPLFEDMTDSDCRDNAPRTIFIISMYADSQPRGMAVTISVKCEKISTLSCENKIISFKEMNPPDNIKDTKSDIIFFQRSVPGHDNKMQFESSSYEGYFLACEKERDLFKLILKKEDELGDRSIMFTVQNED
B2: IL-18 polypeptide of SEQ ID NO: 52 (E06K, T63A) (ligand)
chain: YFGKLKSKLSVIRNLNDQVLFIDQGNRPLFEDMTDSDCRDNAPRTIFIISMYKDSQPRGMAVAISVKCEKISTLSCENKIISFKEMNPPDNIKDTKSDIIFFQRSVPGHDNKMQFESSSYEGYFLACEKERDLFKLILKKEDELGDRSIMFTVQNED
B3: IL-18 polypeptide of SEQ ID NO: 53 (K53A, T63A) (ligand)
chain: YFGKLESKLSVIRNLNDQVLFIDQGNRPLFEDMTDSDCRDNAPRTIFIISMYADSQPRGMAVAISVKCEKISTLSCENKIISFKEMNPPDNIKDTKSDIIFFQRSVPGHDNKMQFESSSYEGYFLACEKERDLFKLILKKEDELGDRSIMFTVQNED
B4: IL-18 polypeptide of SEQ ID NO: 41 (K53A, S55A) (ligand)
chain: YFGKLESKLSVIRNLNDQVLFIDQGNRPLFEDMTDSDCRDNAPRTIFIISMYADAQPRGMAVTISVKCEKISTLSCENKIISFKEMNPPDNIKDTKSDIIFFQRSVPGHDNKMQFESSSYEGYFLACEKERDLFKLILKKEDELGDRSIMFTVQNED
B5: IL-18 polypeptide of SEQ ID NO: 51 (T63A) (ligand)
chain: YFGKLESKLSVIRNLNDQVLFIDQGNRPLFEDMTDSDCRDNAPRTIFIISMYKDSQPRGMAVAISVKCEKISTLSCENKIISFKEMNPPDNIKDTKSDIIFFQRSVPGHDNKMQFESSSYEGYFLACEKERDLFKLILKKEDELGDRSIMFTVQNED
B6: IL-18 polypeptide of SEQ ID NO: 38 (E06K) (ligand)
chain: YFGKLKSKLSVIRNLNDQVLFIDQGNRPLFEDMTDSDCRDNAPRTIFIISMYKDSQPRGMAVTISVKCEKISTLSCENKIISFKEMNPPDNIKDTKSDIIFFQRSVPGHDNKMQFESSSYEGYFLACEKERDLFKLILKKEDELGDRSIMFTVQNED
B7: IL-18 polypeptide of SEQ ID NO: 37 (S55A) (ligand)
chain: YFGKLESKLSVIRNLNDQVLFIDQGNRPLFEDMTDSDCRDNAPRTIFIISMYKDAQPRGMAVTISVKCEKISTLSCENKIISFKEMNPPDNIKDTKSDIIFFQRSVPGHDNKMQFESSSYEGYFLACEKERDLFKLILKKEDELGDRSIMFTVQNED
B8: IL-18 polypeptide of SEQ ID NO: 40 (E06K, S55A) (ligand)
chain: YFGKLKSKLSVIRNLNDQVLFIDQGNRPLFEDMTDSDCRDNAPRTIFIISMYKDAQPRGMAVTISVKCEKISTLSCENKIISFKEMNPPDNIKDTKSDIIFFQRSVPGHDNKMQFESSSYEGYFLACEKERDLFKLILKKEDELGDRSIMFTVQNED
B9: IL-18 polypeptide of SEQ ID NO: 39 (E06K, K53A) (ligand)
chain: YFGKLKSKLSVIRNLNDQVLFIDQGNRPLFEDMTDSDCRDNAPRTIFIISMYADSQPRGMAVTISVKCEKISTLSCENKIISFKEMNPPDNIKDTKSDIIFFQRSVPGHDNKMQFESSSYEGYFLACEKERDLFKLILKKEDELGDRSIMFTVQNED
B10: Composition D (LZM-009 conjugated to IL-18 polypeptide of SEQ ID NO: 31) (other)
VH: QVQLVQSGAEVKKPGASVKVSCKASGYTFTSYYMYWVRQAPGQGLEWMGGVNPSNGGTNFNEKFKSRVTITADKSTSTAYMELSSLRSEDTAVYYCARRDYRYDMGFDYWGQGTTVTVSS
VL: EIVLTQSPATLSLSPGERATISCRASKGVSTSGYSYLHWYQQKPGQAPRLLIYLASYLESGVPARFSGSGSGTDFTLTISSLEPEDFATYYCQHSRELPLTFGTGTKVEIK
chain: [about 150 residues not printed]
modifications: chemical linker to the antibody; site not stated; chemical linker to IL-18; site not stated
B11: IL-18 polypeptide of SEQ ID NO: 31 (C38A, C76A, C127A) (ligand)
chain: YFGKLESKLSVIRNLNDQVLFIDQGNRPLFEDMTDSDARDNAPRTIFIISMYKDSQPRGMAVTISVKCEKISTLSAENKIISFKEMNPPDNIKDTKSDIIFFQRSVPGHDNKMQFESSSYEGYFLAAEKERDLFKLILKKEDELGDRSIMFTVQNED

Target: T1, IL-18 receptor (IL-18Rα/IL-18Rβ) on …
Experiment: cell-based or functional assay

Binder | EC50, IFNγ stimulation, NK92 cells
B1 | 0.444 nM
B2 | 0.011 nM
B3 | 0.155 nM
B4 | 1.58 nM
B5 | 0.449 nM
B6 | 0.0567 nM
B7 | 0.108 nM
B8 | 0.067 nM
B9 | 0.0192 nM

Target: T2, human IL-18BP-His
Experiment: AlphaLISA of free IL-18BP
Description: The plate is incubated further for 1 hr at room temperature. Under subdued light, 12.5 µL of 2× streptavidin (SA) donor beads are pipetted into each well, and the wells are incubated with shaking for an additional 30 min at room temperature. The AlphaLisa signal is then measured on an Enspire plate reader with 680 and 615 nm as excitation and emission wavelengths, respectively. The dissociation constant (K_D) is calculated based on a variable slope, four parameter analysis using GraphPad PRISM software.

Binder | Kd
B1 | 514 nM
B2 | 0.83 nM
B3 | 198 nM
B4 | 500 nM
B5 | 2.59 nM
B6 | 0.13 nM
B7 | 10.7 nM
B8 | 12.3 nM
B9 | 130 nM

Target: T1, IL-18 receptor (IL-18Rα/IL-18Rβ) on …
Experiment: cell-based or functional assay
Remark: another data set of the same source

Binder | EC50, HEK-Blue IL18R reporter cells
B9 | 0.00072 nM

Target: T1, IL-18 receptor (IL-18Rα/IL-18Rβ) on …
Experiment: cell-based or functional assay
Remark: another data set of the same source

Binder | EC50, IFNγ secretion, PD-1 positive KG-1 cells | EC50, IFNγ secretion, parental KG-1 cells
B10 | 0.0225 nM | 0.203 nM
B11 | 0.135 nM | 0.148 nM

Target: T1, IL-18 receptor (IL-18Rα/IL-18Rβ) on …
Experiment: cell-based or functional assay
Remark: another data set of the same source

Binder | EC50, IFNγ secretion, NK92 cells
B10 | 0.471 nM
B11 | 0.103 nM

Target: T2, human IL-18BP-His
Experiment: AlphaLISA of free IL-18BP after incubation with IL-18BP-His
Description: Under subdued light, 12.5 µl of pre-mixed Donor beads were added, followed by a short centrifugation step at 150 g, and incubated for 30 minutes at 20° C. under shaking at 750 rpm with no light. AlphaLisa signal was then measured on an Enspire plate reader (Perkin Elmer) using 680 and 615 nm as excitation and emission wavelengths respectively.

Binder | Kd
B11 | 0.103 nM
